PubChem BioAssay (NCI)
“And” between values parts separate entries of the source, which are not always exact repeats. Identical values can stand only once.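 Method: 48-hour compound exposure of cells in 96-well plates, five concentrations, linear interpolation of endpoints. GI50 is the concentration that inhibits growth by half. TGI is the concentration that stops growth completely.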

System: NCI-H322M lung
Assay: DTP human tumour cell line panel, 48 h

Structure (SMILES) | GI50 | TGI
Cc1ccccc1NC(=O)N/C(N)=N/c1nc(-c2cccc([N+](=O)[O-])c2)cs1 | 3.03 µM | > 100 µM
COc1ccc([N+]2=NC(c3ccc([N+](=O)[O-])cc3)=NN(c3ccccc3)C2)cc1 | – | > 100 µM
O=C(c1cc(Cl)cc(Cl)c1)N(C(=O)N1CCN(c2ccccc2)CC1)c1ccccc1 | – | > 100 µM
CC1=NN(C(=O)CC(=O)Nc2ccc(C)cc2)C(=O)C1N=Nc1ccc(C(=O)O)cc1 (configuration not stated) | – | > 100 µM
CC(C)=CCC[C@@H](C)C1=C(O)C(O)C(C)=C2N=C(c3ccccc3)C(=O)OC21 (some centres not stated) | – | > 25 µM
CC/C(C)=C1\CCC(CN2CCOCC2)C1=O (configuration not stated) | – | > 100 µM
COc1ccc(OC)c2sc(N3C(=O)/C(=C/c4ccc(Cl)cc4)N=C3c3ccccc3)nc12 | – | > 100 µM
CN1C2CCC1CC(CCOC(c1ccc(F)cc1)c1ccc(F)cc1)C2 (configuration not stated) | – | 27.6 µM
CC(=O)Oc1cc2c(n(C)c1=O)-c1ccccc1C2 | – | > 100 µM
O=C1c2ccccc2-c2c1c1ccccc1c(=O)n2CCCNCCCn1ccnc1 | 2.81 µM | 12.8 µM
O=[n+]1c2ccccc2n([O-])c2ccccc21 | – | 88.2 µM
Cc1oc2c(c1C)S(=O)(=O)C(C#N)=C(c1ccccc1)N2 | – | > 100 µM
CN1CCN(CCCN)CC1 | – | > 100 µM
O=C1CC(=O)NC(=NN2C(=O)/C(=C/C(=O)c3ccco3)N=C2c2ccccc2)N1 | – | > 100 µM
O=[N+]([O-])c1cccc(/C=N\NS(=O)(=O)c2ccc(Cl)cc2)c1O | – | > 100 µM
COc1ccc2cc(CNCCCCCCCCCCCCNCc3ccc4cc(OC)ccc4c3)ccc2c1 | – | 43.7 µM
O=C1c2ccccc2-c2cccc3ccc(Cc4ccc5ccccc5c4)c1c23 | – | > 100 µM
O/N=C(\c1ccccc1)N1CCCCC1 | – | > 100 µM
CC[C@@H]1OC2(C)CC(S(=O)(=O)c3ccccc3O)CC1O2 (some centres not stated) | – | > 100 µM
NOCC(=O)O | > 100 µM | > 100 µM
Nc1ccc(N(S(=O)(=O)c2ccccc2)S(=O)(=O)c2ccccc2)c(Cl)c1 | – | > 100 µM
C=CC1(C(=O)O)CCC(C(C)(C)C)CC1 (configuration not stated) | – | > 100 µM
CCOC(=O)C(Cl)(NC(=O)NC(Cl)(C(=O)OCC)C(F)(F)F)C(F)(F)F (configuration not stated) | – | > 100 µM
COc1ccc(/C=N\NC(=O)CN2CCN(c3cc4c(cc3F)c(=O)c(C(=O)N/N=C/c3ccc(OC)c(OC)c3)cn4C3CC3)CC2)cc1OC | 2.83 µM | 12.9 µM

Structure (SMILES) | GI50 | TGI
CN1CCC2(CC1)SC[C@H]1C(=O)N(c3ccc(Cl)cc3)C(=O)N12 | – | > 100 µM
O=[N+]([O-])c1cc(Cl)c(Cl)c([N+](=O)[O-])c1Cl | 2.1 µM | 5.68 µM
O=C1OC(CC(=O)c2ccc(Cl)c(Cl)c2)C(Cl)=C1Cl (configuration not stated) | – | > 100 µM
CC1(C)CN=C(c2ccc3c(c2)Cc2cc(C4=NCC(C)(C)N4)ccc2-3)N1 | – | 73.8 µM
C=C1C(=O)OC2/C=C(\CO)C3OC3C3OC3(C)CC(OC(=O)/C(=C/C)CO)C12 (configuration not stated) | – | > 100 µM
CC(C)CS(=O)(=O)/C(=C(\c1ccc(Br)cc1)S(=O)(=O)CC(C)C)c1ccc(Br)cc1 | – | > 100 µM
CC(=O)c1c(C)[nH]c(-c2nc3ccc(N4CCN(C)CC4)cc3[nH]2)c1-c1ccc(OCC2CCOCC2)cc1 | 1.65 µM | 23.5 µM
N#CC(C#N)N=Cc1ccncc1 | – | > 100 µM
O=C1NC(=O)C(Cc2ccccc2)(c2cccnc2)N1 (configuration not stated) | – | > 100 µM
Cc1cc([C@H](C#N)c2nc3ccccc3[nH]2)nc(Cl)n1 | – | 55.2 µM
CCOC(=O)C(Cc1c[nH]c2ccc(N)cc12)(NC(C)=O)C(=O)OCC | > 1000 µM | > 1000 µM
COC1CC(C)C(OC)C2=CC(=O)C=C(NC(=O)/C(C)=C/C=C\C(C)C(OC(N)=O)/C(C)=C\C(C)C1OC)C2=O (configuration not stated) | – | 17.5 µM
COc1cc(OCc2nc3ccccc3n3cccc23)cc(OC)c1OC | – | > 100 µM
CC[C@H](NC(=O)[C@H](C)NC)C(=O)N1C[C@@H](O)C[C@H]1Cc1c(-c2[nH]c3cc(F)ccc3c2C[C@@H]2C[C@H](O)CN2C(=O)[C@H](CC)NC(=O)[C@H](C)NC)[nH]c2cc(F)ccc12 | > 100 µM | > 100 µM
O=C1Nc2ccc(C(=O)c3ccco3)cc2/C1=C/c1cc(Cl)c(O)c(Cl)c1 | 6.37 µM | > 23.3 µM
CC(O)c1cccc(NCc2c3ccccc3c(=O)n3c2oc2ccccc23)c1 (configuration not stated) | 6.04 µM | 54.8 µM
CCN(CC)CC(O)CNc1ccc(NCC2CO2)c2c1C(=O)c1ccccc1C2=O (configuration not stated) | – | 5.53 µM
COC(=O)c1cc2c(cc1Cl)SC(N(N(C)C)S(=O)(=O)c1ccc(Br)s1)=NS2(=O)=O | 32.4 µM | > 100 µM
CCOC(=O)C(SCCO)C(C(=O)OCC)n1cnc2c(N)ncnc21 (configuration not stated) | – | > 100 µM
COC(=O)CCc1cc(OC)c2c(c1)C(C(=O)OC)C(c1ccc(OC)c(OC)c1)O2 (configuration not stated) | – | > 100 µM
O=C(Nc1cccc2ccccc12)Nn1cnnc1 | – | > 100 µM
OC1(CCc2ccccc2)COC(C(F)(F)F)(C(F)(F)F)C1 (configuration not stated) | – | > 100 µM
COc1cc(S(=O)(=O)Nc2nc(-c3ccc(N4C(=O)C(CC(=O)O)SC4c4ccccc4O)cc3)cs2)ccc1Cl (configuration not stated) | – | > 100 µM
CC(=O)OCC1OC(N2C(=O)C(=O)c3cc(C)ccc32)C(OC(C)=O)C(OC(C)=O)C1OC(C)=O (configuration not stated) | – | > 100 µM

Structure (SMILES) | GI50 | TGI
COc1cc(C2SCC(=O)N2c2ccccc2Cl)cc(OC)c1OC (configuration not stated) | – | > 100 µM
CC(=O)N[C@H]1C=C[C@@H]2/C=C(C)/C=C/[C@@H](C)[C@H]([C@H](C)[C@H](O)[C@@H](C)NC(C)=O)OC(=O)/C=C/C=C(C)\C=C\[C@]2(C)C1 | 0.0957 µM and 0.348 µM | 4.65 µM and > 45 µM
COc1ccc(Nc2nnc(CCCCCCCCc3nnc(Nc4ccc(OC)cc4)o3)o2)cc1 | – | > 100 µM
COc1ccc(N2C(=O)CC(Cl)C2=O)cc1 (configuration not stated) | – | > 100 µM
O=C1C(=O)c2c(oc(=O)c3ccccc23)-c2ccccc21 | – | > 25 µM
Cc1cc(I)cc(CN(C)CCCN2CCSCC2)c1O | 76.7 µM | > 100 µM
CCCCc1c2c(nc3c1CCC/C3=C\c1ccccc1)C(=O)CCC2 | – | 78.1 µM
N#C/C(=C\c1cn(Cc2ccccc2)c2ccccc12)c1nn(-c2ccccc2)c(N)c1C#N | – | 69.6 µM
CN(C)C=Nc1cccc2nsnc12 | – | > 100 µM
CC(C)(C)[Si](C)(C)O[C@@H](C(=O)OC1C=CCCC1)[C@@H](NC(=O)c1ccccc1)c1ccccc1 (some centres not stated) | – | > 100 µM
CCOC(=O)C(C(=O)OCC)=C1NC2(c3ccccc3Nc3ccc(C)cc32)C(C#N)S1 (configuration not stated) | – | 42.5 µM
NC(=O)C(=Cc1ccc(C(O)P(=O)(O)O)cc1)C(N)=O (configuration not stated) | – | > 100 µM
O=C(/C=C/c1ccc(F)cc1)c1ccc(Cl)cc1Cl | > 100 µM | > 100 µM
c1ccc2c(C3CCN(CCN4CCOCC4)C3)c[nH]c2c1 (configuration not stated) | – | > 100 µM
CC(=O)C(I(OS(=O)(=O)c1ccc(C)cc1)c1ccccc1)=P(c1ccccc1)(c1ccccc1)c1ccccc1 | – | > 100 µM
CCOC(=O)C1=CN/C(=C(/C)C(=O)OC)SC1C(=O)OCC (configuration not stated) | – | > 100 µM
COc1ccccc1N1C(=O)/C(=C/c2ccc(N(CCC#N)CCC#N)cc2C)N=C1c1cc([N+](=O)[O-])ccc1Cl | – | > 100 µM
CC12OC(c3ccccc3)=CC(c3ccc(Cl)cc3)=C1C(c1ccccc1)=CC2=O (configuration not stated) | > 100 µM | > 100 µM
CC[C@](O)(CC(=O)O[C@H]1C(=O)O[C@@H]2C[C@H]3C(C)=CC(=O)[C@@H](O)[C@]3(C)[C@H]3[C@@]4(O)OC[C@]32[C@@H]1[C@@H](C)[C@H]4O)C(C)C | – | 0.0352 µM
COc1cc(OC)cc(C2CC(=O)Nc3c2c(C)nn3-c2nc3ccccc3[nH]2)c1 (configuration not stated) | 4.63 µM | > 100 µM
c1ccc2c(c1)CCC/C2=N\OCC1CO1 (configuration not stated) | – | > 100 µM
CCCCCCCCC[C@@H]1CC(=O)OCC2OC(O[C@H](CCCCCCCCC)CC(=O)OCC3OC(O[C@H](CCCCCCCCC)CC(=O)OCC4OC(O1)C(O)C(O)C4O)C(O)C(O)C3O)C(O)C(O)C2O (some centres not stated) | – | 23.3 µM
O=C(/C=C/c1ccc([N+](=O)[O-])o1)N1CCN(Cc2ccccc2)CC1 | – | 23 µM
CCN(CC)c1cc2c3c(c1)CCCN3CCC2 | – | > 10 µM

Structure (SMILES) | GI50 | TGI
O=c1[nH]c(C23CC4CC(CC(C4)C2)C3)cc2c1c(=O)oc1ccccc12 | – | 16.6 µM
N=c1oc2ccc([N+](=O)[O-])cc2cc1C(=O)NCc1ccccc1 | – | > 100 µM
COc1ccc(NC(=O)C(=O)C(C(=O)c2ccccc2)C2OC(=O)c3ccccc32)c([N+](=O)[O-])c1 (configuration not stated) | – | > 100 µM
COc1ccc(/C=C2\CCC(CNc3cc(C)on3)C2=O)cc1 (configuration not stated) | – | > 100 µM
CCOC(=O)Nc1nc2ccc(Cn3cccc3)cc2[nH]1 | – | > 100 µM
CCN(CC)CCCC(C)Nc1c2ccc(Cl)cc2nc2ccc(OC)cc12 (configuration not stated) | – | 5.17 µM
O=C(N/N=C/c1ccc2c(c1)OCO2)Nc1ccccc1Cl | – | > 70.8 µM
COc1cc(Nc2nccc(Nc3ccc4c(C)[nH]nc4c3)n2)cc(OC)c1OC | 1.98 µM | 13.5 µM
O=C(Nc1ccc(Cl)cc1)C(=O)C(C(=O)c1ccccc1-c1ccccc1)C1OC(=O)c2ccccc21 (configuration not stated) | – | 53.6 µM
COc1cc(C(=O)/C(C)=C/c2c[nH]c3ccccc23)cc(OC)c1OC | – | > 100 µM
Cc1cc(C)c([O-])c(CN(C)CCN(C)Cc2cc(C)cc(C)c2[O-])c1.O=C([O-])c1cccc(C(=O)[O-])n1.[Ti+4] | 2.45 µM | > 100 µM
C[C@]12C[C@H](c3ccccc3)Nc3ccccc3N1C(c1ccccc1)=NO2 | – | > 100 µM
CC(=O)O[C@H]1CC[C@H]2[C@@H]3CCC4C(C)=NNC(=O)C4[C@H]3CC[C@]12C (some centres not stated) | – | > 100 µM
C=C1C(=O)C23CC1C[C@H](OC(C)=O)[C@H]2C1(C)C(OC(C)=O)C[C@H](O)C(C)(C)[C@H]1C(=O)[C@@H]3OC(C)=O (some centres not stated) | – | 28.5 µM
CCN(CC)C1Oc2cc3c(cc2C(c2ccc(OC)cc2)C1C)OCO3 (configuration not stated) | – | 57.4 µM
O=S(=O)(N/N=C/c1ccc(/C=N/NS(=O)(=O)c2ccccc2)cc1)c1ccccc1 | – | > 100 µM
CC(C)(C#N)c1cc(Cn2cncn2)cc(C(C)(C)C#N)c1 | > 10000 µM | > 10000 µM
CCC(C)C(C(=O)N/N=C1/SCC(=O)N1c1ccccc1)C(=O)N/N=C1/SCC(=O)N1c1ccccc1 (configuration not stated) | – | > 100 µM
ClCc1cccc(Cn2cnc3c(NC45CC6CC(CC(C6)C4)C5)ncnc32)c1 | 15.4 µM | 31.9 µM
O=C1CC(NC(=O)C(F)(F)F)c2c1csc2Br (configuration not stated) | – | > 100 µM
COc1cc2c[n+](C)c3c4cc5c(cc4ccc3c2cc1OC)OCO5 | – | 42.8 µM
O=c1c2c(nc3n1CCS3)[nH]c1ccccc12 | > 100 µM | > 100 µM
COc1cc(S(=O)(=O)Nc2nc(-c3ccc(N4C(=O)CSC4c4cccs4)cc3)cs2)ccc1Cl (configuration not stated) | – | > 100 µM
COc1ccc2cc(Oc3ccc(Cl)cc3)c(=O)oc2c1 | – | > 100 µM
